In PubChem BioAssay AID485297 (National Center for Advancing Translational Sciences (NCATS), 2010):
Among all 320,000 compounds or so, about 9,100 (2.8%) were called active. The inconclusive results got no clear call from the source; some entries with a clear call stand among them for comparison. Calls follow the shape of the dose curve; as a rule, active = well fitted activation curve with a large enough effect; inconclusive = small, poorly fitted or top-dose-only effect; inactive = no such curve, though single readings can be large or run the other way. Potencies of inconclusive entries are left out as doubtful fits.

Assay: qHTS Assay for Rab9 Promoter Activators; also: nearly all actives have a fitted effect of over 60% in size
Settings: Huh7 Rab9 promoter-luciferase reporter, luminescence, 24 h; series mostly up to 9.22 µM
Outline: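 Huh7 reporter line, Rab9 promoter upstream of luciferase. Compound exposure 24 h at 37 °C in reduced-serum medium with 10% FBS. Read-out: luminescence.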
Potency is read from the fitted curve at half-maximal effect; tags tell the direction and shape of the fitted curve.

Q: With O=C1C2CC=CCC2C(=O)N1Cc1ccccc1 (stereo unspecified) as the compound, how does the Potency read?
A: Its Potency is “inactive”.

Q: Which Potency does the source give for N#CC1(NC(=O)COC(=O)c2nccnc2N)CCCCC1 here?
A: The Potency was “inactive”.

Q: For BrCCOCCOc1ccc2ccccc2c1, which Potency is on record?
A: Its Potency is inconclusive [activator, partial curve].

Q: For O=C1c2ccccc2NC(c2cccc([N+](=O)[O-])c2)N1CCc1ccccc1 (stereo unspecified), which Potency is on record?
A: The Potency was inconclusive [activator, partial curve].

Q: With COc1ccc(C2CC2/C(=N/O)c2ccccn2)cc1 (stereo unspecified) as the compound, how does the Potency read?
A: Its Potency is inconclusive [activator, single point].

Q: With COc1ccc(O)c(C(=O)/C=C/c2cc3ccccc3o2)c1 as the compound, how does the Potency read?
A: Its Potency is “inactive”.

Q: With Nc1ccc2nc(-c3cc(Cl)c(N)c(Cl)c3)[nH]c2c1 as the compound, how does the Potency read?
A: The Potency was active: 3.16 µM.

Q: With Cc1cccc(NC(=O)c2cnc3sccn3c2=O)c1C as the compound, how does the Potency read?
A: The Potency was active: 1.12 µM.

Q: With O=C(COc1cc2oc(=O)c3c(c2cc1Cl)CCC3)Nc1cccnc1 as the compound, how does the Potency read?
A: Its Potency is inconclusive [activator, single point].

Q: With CC(=C/c1ccccc1)/C=N/NC(=O)c1cnccn1 as the compound, how does the Potency read?
A: Its Potency is inconclusive [activator, partial curve].

Q: For O=C(Nc1cccc(Cl)c1)NC1CCCCC1, which Potency is on record?
A: Its Potency is inconclusive [activator, single point].

Q: For Cc1c(OCC(F)(F)F)ccnc1CSc1nc2ccccc2[nH]1, which Potency is on record?
A: Its Potency is inconclusive [activator, partial curve].

Q: With CN1CCN(NC(=S)NC2CCCCC2)CC1 as the compound, how does the Potency read?
A: The Potency was “inactive”.

Q: For O=C(CN1CCc2ccccc21)Nc1ccc2c(c1)OCCCO2, which Potency is on record?
A: Its Potency is inconclusive [activator, single point].

Q: For CCc1nn(C(C)C(=O)NCc2cccc(Cl)c2)c(=O)c2cc3occc3n12 (stereo unspecified), which Potency is on record?
A: The Potency was “inactive”.

Q: With Cc1ccc2c(c1)COc1c3ccc(C(=O)N4CCOCC4)cc3nn1-2 as the compound, how does the Potency read?
A: Its Potency is active: 1.58 µM.

Q: For Cc1ccc(C)c(S(=O)(=O)N2CCN(c3ncccn3)CC2)c1, which Potency is on record?
A: Its Potency is inconclusive [activator, single point].

Q: For CCc1ccc(C(=O)Nn2cnc3ccccc3c2=O)cc1, which Potency is on record?
A: The Potency was active: 2.24 µM.

Q: With Cc1ccc2nc(-c3ccccc3N)[nH]c2c1 as the compound, how does the Potency read?
A: The Potency was active: 0.501 µM.

Q: With Cc1nc(Nc2ccc(S(N)(=O)=O)cc2)sc1-c1ccccc1 as the compound, how does the Potency read?
A: The Potency was “inactive”.

Q: Which Potency does the source give for O=C(Nc1cccc(NC(=O)c2cccc([N+](=O)[O-])c2)n1)c1cccc([N+](=O)[O-])c1 here?
A: The Potency was “inactive”.

Q: With C=CCn1c(C)cc(C(=O)Cn2nc(C(=O)O)c3ccccc3c2=O)c1C as the compound, how does the Potency read?
A: Its Potency is inconclusive [activator, partial curve].

Q: For Cc1nn(CCOc2ccccc2)c(=O)n1-c1ccccc1F, which Potency is on record?
A: Its Potency is inconclusive [activator, partial curve].

Q: With Cc1oc(=O)c(NC(=O)c2cccc(Cl)c2)cc1C(=O)c1ccccc1 as the compound, how does the Potency read?
A: The Potency was inconclusive [activator, single point].

Q: Which Potency does the source give for COc1ccc(C2=NN(C(C#N)c3ccc(OC)cc3)C(c3ccccc3)C2)cc1 (stereo unspecified) here?
A: The Potency was inconclusive [activator, partial curve].

Q: For CSc1ccc(/C=N/NC(=O)COc2ccc(Br)cc2Cl)cc1, which Potency is on record?
A: The Potency was “inactive”.

Q: For O=C(Cn1cnc2c(oc3ccccc32)c1=O)c1ccccc1, which Potency is on record?
A: Its Potency is inconclusive [activator, single point].

Q: Which Potency does the source give for Cc1ccc(/C=N/Nc2nc(Cl)c(Cl)cc2Cl)s1 here?
A: The Potency was inconclusive [activator, single point].

Q: Which Potency does the source give for CCN(CC)S(=O)(=O)c1ccc(NC(=O)c2ccccc2N(C)S(C)(=O)=O)cc1 here?
A: The Potency was “inactive”.

Q: For COc1cc2[nH]c3c(=O)n4c(nc3c2cc1OC)SCCC4, which Potency is on record?
A: Its Potency is inconclusive [activator, single point].

Q: With O=C(O)Cc1sc(Nc2ccc(F)cc2)nc1-c1cccs1 as the compound, how does the Potency read?
A: Its Potency is inconclusive [activator, single point].

Q: With Cc1ccc(O)c(/C=N/NC(=O)c2[nH]ncc2Br)c1 as the compound, how does the Potency read?
A: The Potency was inconclusive [activator, single point].

Q: With O=C(Nc1cccc(Cl)c1Cl)c1ccc(-c2ccccc2)cc1 as the compound, how does the Potency read?
A: Its Potency is inconclusive [activator, single point].

Q: With CCCCN(C)C(=O)C1CCN(C/C(C)=C/c2ccccc2)CC1 as the compound, how does the Potency read?
A: Its Potency is “inactive”.

Q: With Cc1cc(=O)n2[nH]c(-c3ccc(F)cc3)cc2n1 as the compound, how does the Potency read?
A: The Potency was inconclusive [activator, partial curve].

Q: With Cc1cccc(C(=O)Nc2ccn(C)n2)c1 as the compound, how does the Potency read?
A: Its Potency is active: 2.51 µM.

Q: Which Potency does the source give for N=c1c2c3c(sc2nc2n1CCCCC2)CCCCC3 here?
A: Its Potency is inconclusive [activator, single point].

Q: Which Potency does the source give for O=C(Nc1ccc(F)cc1)c1ccc(NC(=O)C2CCCO2)cc1 (stereo unspecified) here?
A: Its Potency is inconclusive [activator, single point].

Q: For O=C(NC1CCCCC1)c1cc(C2CC2)on1, which Potency is on record?
A: Its Potency is inconclusive [activator, partial curve].

Q: For CCc1nnc(NC(=O)c2cccs2)s1, which Potency is on record?
A: The Potency was inconclusive [activator, partial curve].

Q: With COc1ccc(OCCN2C(=O)c3ccccc3C2=O)c([N+](=O)[O-])c1 as the compound, how does the Potency read?
A: Its Potency is inconclusive [activator, partial curve, poor fit].

Q: Which Potency does the source give for Cc1cc(C(=O)CSc2nnc(-c3cccnc3)n2-c2ccccc2)c(C)n1CC1CCCO1 (stereo unspecified) here?
A: Its Potency is inconclusive [activator, single point].

Q: Which Potency does the source give for S=C(N/N=C/c1ccco1)NC1CC2CCC1C2 (stereo unspecified) here?
A: Its Potency is inconclusive [activator, partial curve].

Q: With COc1cc(CN2CCCC(N3CCc4ccccc4C3)C2)c(Cl)cc1O (stereo unspecified) as the compound, how does the Potency read?
A: Its Potency is “inactive”.

Q: For CC(=O)N(Cc1cccnc1)c1cccc(-c2nc3ccccc3s2)c1, which Potency is on record?
A: The Potency was “inactive”.

Q: With CCOc1ccc(C(=O)NCCc2ccccc2)cc1 as the compound, how does the Potency read?
A: The Potency was active: 0.316 µM.

Q: Which Potency does the source give for CC(/C=C/c1ccccc1F)=N\NC(=O)C(C)C here?
A: Its Potency is inconclusive [activator, single point].

Q: For COc1ccc(C(=O)Nc2cc3c4c(c2)CC(=O)N4CCC3)c(OC)c1, which Potency is on record?
A: The Potency was inconclusive [activator, single point].

Q: Which Potency does the source give for CSc1ccccc1OCc1cc(C(=O)N(C)Cc2ccc3nsnc3c2)no1 here?
A: The Potency was active: 0.708 µM.

Q: Which Potency does the source give for O=C(Nc1nccs1)c1cncc(Br)c1 here?
A: The Potency was active: 3.98 µM.

Q: With CCOC(=O)c1sc(NC(=O)Nc2ccccc2Cl)cc1C as the compound, how does the Potency read?
A: The Potency was active: 0.631 µM.

Q: For CN(c1ccccc1)S(=O)(=O)c1cccc(C(=O)NNC(=O)c2ccccc2)c1, which Potency is on record?
A: Its Potency is “inactive”.

Q: For Cc1ccc(NC(=O)CN2C(=O)S/C(=C/c3ccc(-c4cc(C(=O)O)ccc4C)o3)C2=O)cc1C, which Potency is on record?
A: The Potency was “inactive”.

Q: For CCSc1nnc(NC(=O)c2ccco2)s1, which Potency is on record?
A: Its Potency is inconclusive [activator, single point].

Q: Which Potency does the source give for CN(C)S(=O)(=O)c1ccc(-c2cn3ccccc3n2)cc1 here?
A: Its Potency is active: 2.51 µM.

Q: With O=C(Nc1ccc(S(=O)(=O)N2CCOCC2)cc1)c1ccc2ncsc2c1 as the compound, how does the Potency read?
A: Its Potency is inconclusive [activator, partial curve].

Q: For O=C(Nc1ccc(/C=C/c2nc3ccccc3o2)cc1)c1cccc(C(F)(F)F)c1, which Potency is on record?
A: The Potency was inconclusive [activator, partial curve].

Q: For COc1ccccc1/C=N/NC(=O)c1sc(C)nc1C, which Potency is on record?
A: Its Potency is “inactive”.

Q: Which Potency does the source give for CCc1ccc(NC(=O)c2cc(C(C)C)on2)cc1 here?
A: Its Potency is active: 0.631 µM.

Q: For C/C=C/Cn1cccc(C(=O)Nc2ccc(OC)cc2)c1=O, which Potency is on record?
A: Its Potency is inconclusive [activator, full curve].

Q: With CCC(O)(CC)C(=O)N/N=C/c1cc(Br)cc(Br)c1O as the compound, how does the Potency read?
A: The Potency was “inactive”.

Q: For CCCCOc1ccc(C2C(C(=O)c3ccc(C)o3)=C(O)C(=O)N2Cc2ccco2)cc1 (stereo unspecified), which Potency is on record?
A: The Potency was inconclusive [activator, single point].

Q: For COc1ccccc1NC(=O)C(=O)NCC(c1ccco1)N1CCc2ccccc2C1 (stereo unspecified), which Potency is on record?
A: Its Potency is “inactive”.

Q: For Cc1c(C(=O)N2CCN(C)CC2)oc2ccc(Br)cc12, which Potency is on record?
A: The Potency was inconclusive [activator, partial curve].

Q: Which Potency does the source give for COc1ccc(NC(=O)C2CC(=O)N(Cc3ccco3)C2)cc1Cl (stereo unspecified) here?
A: The Potency was “inactive”.

Q: With CN(CCCC1CCCC1)C(=O)c1cc(COc2ccc(F)c(F)c2)on1 as the compound, how does the Potency read?
A: The Potency was “inactive”.

Q: With COc1ccc2[nH]cc(CCNC(=O)Cc3ccc(F)cc3)c2c1 as the compound, how does the Potency read?
A: Its Potency is “inactive”.

Q: Which Potency does the source give for Cc1ccnc(NC(=O)c2cc3ccccc3o2)c1 here?
A: The Potency was inconclusive [activator, full curve, poor fit].

Q: For O=C(COc1ccc(Br)cc1Br)NC(=O)NC1CCCC1, which Potency is on record?
A: The Potency was active: 3.55 µM.

Q: With O=C(CN1CCN(c2ccccn2)CC1)Nc1ccc(OC(F)(F)F)cc1 as the compound, how does the Potency read?
A: Its Potency is “inactive”.

Q: With Nc1ccc2oc3ccccc3c2c1 as the compound, how does the Potency read?
A: Its Potency is inconclusive [activator, partial curve].

Q: For CC(C)Sc1nnc(NC(=O)c2ccc3c(c2)OCO3)s1, which Potency is on record?
A: The Potency was active: 1.41 µM.

Q: For Cn1c(C2CCCCC2)nc2ccccc21, which Potency is on record?
A: Its Potency is “inactive”.

Q: Which Potency does the source give for O=C(Nc1cccnc1)c1ccc(-c2ccc(Cl)cc2)o1 here?
A: Its Potency is inconclusive [activator, single point].

Q: Which Potency does the source give for NC(=O)N1CCC2(CC1)NC(=O)N(c1ccccc1)N2 here?
A: Its Potency is “inactive”.

Q: For CCC(C)(C)C1CCC(NC(=O)c2ccc(S(=O)(=O)N3CCOCC3)cc2)CC1 (stereo unspecified), which Potency is on record?
A: The Potency was “inactive”.

Q: With Cc1ccc(/C=N/N2CCN(c3ccccn3)CC2)o1 as the compound, how does the Potency read?
A: Its Potency is inconclusive [activator, single point].

Q: For Cc1ccc(C(=O)Cc2cc3ccccc3oc2=O)c(C)c1, which Potency is on record?
A: Its Potency is active: 0.794 µM.

Q: Which Potency does the source give for CCOC(=O)N1CCC(Nc2cc(C)nc3c(-c4ccccc4OC)c(C)nn23)CC1 here?
A: The Potency was “inactive”.

Q: Which Potency does the source give for COC(=O)c1ccc(N=NNc2ccc(C(=O)OC)cc2)cc1 here?
A: The Potency was inconclusive [activator, partial curve].

Q: Which Potency does the source give for O=C(Nc1ccccc1)Nc1cccn(Cc2c(F)cccc2Cl)c1=O here?
A: The Potency was inconclusive [activator, single point].
